1 molecule from patent US20210008166A1 (SPECTRUM PHARMACEUTICALS, published 2021) can be followed below.

For this assay, the target named is T1, Chinese hamster ovary (CHO) cell-derived soluble recombinant human G-CSF receptor (R&D Systems, 381-050/CF) (human, UniProt Q99062 25-627).
T1 construct: extracellular domain; Bought and amine-coupled to a CM5 chip; also called soluble human G-CSF receptor
T1 sequence (looked up): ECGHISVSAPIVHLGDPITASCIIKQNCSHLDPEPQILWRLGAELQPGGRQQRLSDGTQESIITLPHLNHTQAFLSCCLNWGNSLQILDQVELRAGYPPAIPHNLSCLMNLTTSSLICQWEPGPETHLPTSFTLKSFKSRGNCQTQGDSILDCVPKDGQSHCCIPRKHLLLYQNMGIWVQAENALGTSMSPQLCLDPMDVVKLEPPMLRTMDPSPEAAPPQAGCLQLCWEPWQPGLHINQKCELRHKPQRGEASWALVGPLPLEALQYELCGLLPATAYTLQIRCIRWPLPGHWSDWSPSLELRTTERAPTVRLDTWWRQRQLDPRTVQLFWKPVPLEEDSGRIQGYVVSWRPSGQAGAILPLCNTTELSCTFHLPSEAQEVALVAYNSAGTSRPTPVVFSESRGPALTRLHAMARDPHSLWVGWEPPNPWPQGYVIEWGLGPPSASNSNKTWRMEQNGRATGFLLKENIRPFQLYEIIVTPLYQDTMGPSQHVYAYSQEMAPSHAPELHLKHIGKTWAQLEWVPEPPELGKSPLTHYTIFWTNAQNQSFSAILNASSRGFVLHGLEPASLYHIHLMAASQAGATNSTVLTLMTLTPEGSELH
Nature of the assay: SPR (BIAcore 3000), receptor amine-coupled to CM5 chip, analyte 5.5-88 nmol/L, 25 C, 1:1 Langmuir fit. In general terms: Surface plasmon resonance follows binding to a sensor surface in real time, without labels.

B1: Eflapegrastim (^17,65S-G-CSF-PEG-Fc protein complex; Ser^17,65-GCSF-polyethylene glycol-IgG4-Fc) (Fc fusion)
chain 1: TPLGPASSLPQSFLLKSLEQVRKIQGDGAALQEKLCATYKLCHPEELVLLGHSLGIPWAPLSSCSSQALQLAGCLSQLHSGLFLYQGLLQALEGISPELGPTLDTLQLDVADFATTIWQQMEELGMAPALQPTQGAMPAFASAFQRRAGGVLVASHLQSFLEVSYRVLRHLAQP
chain 2: [human IgG4 Fc left out]
modifications: aglycosylated (made in E. coli); N-terminus (proline) of only one of the two Fc chains is linked to the PEG; amino group of the N-terminus linked to one molecule of 3.4 kDa polyethylene glycol dialdehyde (the other PEG end is on the Fc N-terminus)
notes: also called HM10460A; SPI-2012
By Kd is commonly meant the constant that tells how readily two partners part at equilibrium. With B1, the Kd came to 3.6 nM.
